48 compounds from PubChem BioAssay AID1963576 (National Center for Advancing Translational Sciences (NCATS), 2024) can be followed below.

Each structure is given as a SMILES string. The campaign covered roughly 46,000 compounds. About 60 (0.1%) were called active. Inconclusive results (about 3%) are left out. The call rests on the fitted dose curve; in most records, active means well fitted inhibition curve with a large enough effect; inconclusive means small, poorly fitted or top-dose-only effect; inactive means no such curve, though single readings can be large or run the other way. The list shows a part of the results.

A short description of the test: Primary qHTS assay for Inhibitors of ovarian cancer metastasis using an organotypic tumor microenvironment (TME) model. Further: nearly all actives have a fitted effect of over 65% in size.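 On activity change, negative = inhibition: plate controls were DMSO wells for no effect and tomatine positive control wells for full effect.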 Conditions: SKOV3ip1-GFP adhesion/invasion on 3D omental model, fluorescence; series mostly up to 45.8 µM; activity change, negative = inhibition: at the top concentration. In short, it runs like this: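 Primary human omental fibroblast/mesothelial 3D culture pre-formed 48 h. SKOV3ip1-GFP cells added with compounds (0.36-46 umol/L), incubated 2 h RT/16 h 37 C, fixed; GFP cells quantified at 488/509 nm.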
On to `CCCCNC(=O)CSc1nc2nc(C)c(Cc3ccccc3C)c(C)n2n1`, for which the “activity change, negative = inhibition” value was inactive: -2.04%.

`COc1cc(NS(=O)(=O)c2ccc(NC(=O)c3ccccc3C(=O)O)cc2)nc(OC)n1`: the “activity change, negative = inhibition” value is inactive: 2.15%.

In the case of `CC(=O)Nc1cccc(C(=O)NCc2ccc3c(c2)CCN3C(=O)c2ccccc2)c1`, the “activity change, negative = inhibition” value was inactive: 4.06%.

Consider `CCOc1ccc(CCNC(=O)Cn2nnc(-c3ccccc3)n2)cc1OCC`, for which the outcome was inactive.

Take `CCOC(=O)c1cc(C)n(CC2CCC(C(=O)Nc3ccc(Cl)cc3)CC2)c1C` (stereo not drawn): the compound was called inactive.

Consider `CCC1CCc2nc3sc(C(=O)Nc4ccc(F)cc4F)c(N)c3cc2C1` (stereo not drawn), for which the “activity change, negative = inhibition” value was inactive: -9.09%.

In the case of `CCOC(=O)c1sc(NC(=O)/C=C/c2ccc(OCC)cc2)c(C(=O)OCC)c1C`, the “activity change, negative = inhibition” value was inactive: -22.8%.

Regarding `C[N+]1(C)[C@@H]2CC(OC(=O)[C@H](CO)c3ccccc3)C[C@H]1[C@H]1O[C@@H]12` (stereo partly drawn), the “activity change, negative = inhibition” value is inactive: 9.95%.

On to `COc1ccc(C(=O)N2CC(=O)Nc3ccc(F)cc3C2c2ccc(F)cc2)c(OC)c1` (stereo not drawn), for which the “activity change, negative = inhibition” value is inactive: -6.97%.

As to `COc1ccc(/C=C/c2nc(C#N)c(NCCc3ccc(OC)c(OC)c3)o2)cc1OC`, the “activity change, negative = inhibition” value was inactive: 5.48%.

With `CC(C)CC(=O)Nc1ccc(C(=O)OCc2cc(=O)n3nc(C(C)C)sc3n2)cc1`, the “activity change, negative = inhibition” value is inactive: 28.4%.

`COc1cccc(C(=O)Nc2cc(-c3ccccc3)no2)c1`: the “activity change, negative = inhibition” value is inactive: 1.03%.

In the case of `COc1ccc(-n2c(=O)c3ccc(C(=O)NCc4ccc(C)cc4)cc3n(CC(=O)Nc3ccc(F)cc3)c2=O)cc1`, the “activity change, negative = inhibition” value is inactive: -2.75%.

On to `NCc1c[nH]c(=S)n1[C@H]1CCc2c(F)cc(F)cc2C1`, for which the “activity change, negative = inhibition” value was inactive: 31.8%.

In the case of `Cc1cc(C)cc(NS(=O)(=O)c2ccc3[nH]cc(C(=O)N4CCCC4)c(=O)c3c2)c1`, the “activity change, negative = inhibition” value was inactive: 1.29%.

Turning to `O=C(OCc1cc(=O)n2nc(C3CC3)sc2n1)c1ccc(F)cc1`, the outcome was inactive.

For `CCOc1ccccc1NC(=O)Cn1cnc2onc(-c3ccc(F)cc3)c2c1=O`, the outcome was inactive.

For the compound `O=C(CSc1cn(CCNC(=O)c2c(F)cccc2F)c2ccccc12)Nc1ccc2c(c1)OCCO2`, the result was inactive.

With `Cc1ccc(NC(=O)c2oc3ccccc3c2NC(=O)c2cc3ccccc3o2)cc1`, the “activity change, negative = inhibition” value was inactive: 6.19%.

In the case of `COC(=O)c1ccc(NC(=O)c2cc(S(=O)(=O)N3CCc4ccccc43)cn2C)cc1`, the “activity change, negative = inhibition” value was inactive: 10.6%.

On to `CC(C)CC(NS(=O)(=O)c1ccc2c(c1)oc(=O)n2C)C(=O)NCCc1ccc(Cl)cc1` (stereo not drawn), for which the “activity change, negative = inhibition” value is inactive: -0.659%.

Consider `O=C(NCc1cccnc1)C1CCN(Cc2cc3ccccc3n2Cc2cccc(Cl)c2)CC1`, for which the outcome was inactive.

Take `CCCCc1nnc(SCc2cc(=O)c3cc(C(=O)OCC)ccc3[nH]2)n1C`: the “activity change, negative = inhibition” value was inactive: -3.06%.

`CC1=C(C(N)=O)C(c2cccc(Br)c2)n2nc(SCc3ccccc3)nc2N1` (stereo not drawn): the “activity change, negative = inhibition” value is inactive: 19.3%.

`O=C(Nc1cccc(C(=O)N2CCN(c3ccc(Cl)cc3)CC2)c1)c1nsc2ccccc12`: the “activity change, negative = inhibition” value was inactive: -2.13%.

Turning to `Cc1oc(-c2ccc(Cl)cc2)nc1CS(=O)CC(=O)NCc1ccc(Cl)cc1` (stereo not drawn), the “activity change, negative = inhibition” value is inactive: 15.2%.

Regarding `CCc1ccc(NC(=O)CSc2nc3n[nH]c(C)c3c(=N)n2-c2ccccc2C)cc1`, the compound was called inactive.

In the case of `COc1cccc(C(=O)Nc2ccccc2OCc2cc(=O)n3cc(C)ccc3n2)c1`, the result was inactive.

As for `Cc1cc2nc(-c3cc(NC(=O)c4cc5ccccc5o4)ccc3Cl)oc2cc1C`, the “activity change, negative = inhibition” value was inactive: -15.5%.

On to `CCCNC(=O)C1CCN(S(=O)(=O)c2ccc3c(c2)CCCN3C(C)=O)CC1`, for which the “activity change, negative = inhibition” value is inactive: -11.5%.

Take `Cc1cc(C)n2nc(SCC(=O)Nc3ccccc3)nc2n1`: the “activity change, negative = inhibition” value is inactive: 12.2%.

Turning to `Cc1ccc2nc(-c3ccc(O)cc3)c(Nc3ccc4c(c3)OCO4)n2c1`, the “activity change, negative = inhibition” value was inactive: 1.1%.

As to `Cc1cc(NC(=O)C(C)C)cc(-c2nc3ncccc3o2)c1O`, the call was inactive.

For the compound `CC(C)N(Cc1ccccc1)C(=O)CCS(=O)(=O)c1cc2c(cc1Cl)NC(=O)CO2`, the “activity change, negative = inhibition” value is inactive: 1.75%.

With `N#Cc1c(NC(=O)c2cc3nc(-c4ccc(Br)cc4)cc(C(F)(F)F)n3n2)sc2c1CCCC2`, the compound was classed as inactive.

As for `O=C1CC(c2ccccc2C(F)(F)F)c2c(c3ccccc3[nH]c2=O)O1` (stereo not drawn), the call was inactive.

For the compound `CCOC(=O)C1=C(CS(=O)(=O)c2c(C)cc(C)cc2C)NC(=O)NC1c1cccc(OC)c1` (stereo not drawn), the call was inactive.

For `COc1ccccc1N1CCN(C(CNC(=O)C(=O)NCCCN(C)C)c2cccnc2)CC1` (stereo not drawn), the “activity change, negative = inhibition” value is inactive: -2.18%.

Regarding `COc1ccc(N(CC(=O)NCCc2cccc(C)c2)S(=O)(=O)c2c(C)nn(C)c2C)cc1`, the “activity change, negative = inhibition” value was inactive: 22.9%.

Take `Cc1ccccc1OCc1nnc(SCc2cc(=O)c3ccccc3[nH]2)n1C`: the “activity change, negative = inhibition” value is inactive: 2.76%.

Turning to `CCOc1ccc(NC(=O)C2Cc3ccccc3N2C(=O)c2ccccc2)cc1` (stereo not drawn), the call was inactive.

On to `COCc1cc(C)nc2sc3c(c12)NC(c1ccc(O)cc1)N(c1ccc(OC)cc1)C3=O` (stereo not drawn), for which the “activity change, negative = inhibition” value was inactive: 5.95%.

On to `CCOc1ccc(-c2c(C)nn3c(C)c(C(=O)Nc4ccccc4C(=O)OC)cnc23)cc1OCC`, for which the “activity change, negative = inhibition” value is inactive: 1.75%.

On to `Cn1c(=O)c2c(ncn2CC(O)CO)n(C)c1=O` (stereo not drawn), for which the “activity change, negative = inhibition” value was inactive: 1.87%.

Regarding `COC(=O)c1cccc(Nc2c(-c3ccc(O)c(OC)c3)nc3nc[nH]n23)c1`, the “activity change, negative = inhibition” value is inactive: 20.2%.

As for `Cc1cccc(NC(=O)CSc2nc3ccc(NC(=O)c4ccco4)cc3s2)c1`, the “activity change, negative = inhibition” value was inactive: 5.1%.

For the compound `COCCn1c(C)cc(O)c(C(c2ccccc2)N2CCN(C)CC2)c1=O` (stereo not drawn), the outcome was inactive.

Turning to `COc1ccccc1NC(=O)Cc1c(C(=O)O)[nH]c2ccc(Cl)cc12`, the “activity change, negative = inhibition” value was inactive: -7.09%.
